Measured values reported in PubChem BioAssay (NCI).
Several values for one entry are separate records, joined by “and”; a condition that tells them apart may be missing. Equal values may be shown once.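 How tested: cells in 96-well plates exposed to compound for 48 hours at five concentrations. GI50 is the concentration that inhibits growth by half. At the TGI there is no net growth.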

Tested on: NCI-H322M lung
Test: DTP human tumour cell line panel, 48 h

Q: Which results are given for CC1=CC[C@@H]2C(C)(C)C(=O)CC[C@@]2(C)[C@@H]1COc1ccc2ccc(=O)oc2c1?
A: GI50: 22.7 µM; TGI: 81.3 µM

Q: How did the TGI turn out when C=C(C)[C@@H]1C[C@H]2O[C@](O)(C(=C)CC(=O)/C=C(/C)C[C@@H]3OC(=O)[C@]24O[C@@H]34)[C@H]1O was run?
A: Its TGI is > 100 µM.

Q: Cc1cc(C)nc(NS(=O)(=O)c2ccc(NN=c3c4ccccc4n(C)c4ccccc34)cc2)n1 was tested. Which TGI did it give?
A: The TGI was > 100 µM.

Q: For CC(C)(N)CO[C@H]1C[C@H]2CC[C@@]1(C)C2(C)C, which TGI is on record?
A: The TGI was 43.2 µM.

Q: With COc1ccc(OC)c([N+](=O)[O-])c1-c1nc2sccn2c1/C=N/N=C(N)N as the compound, how does the TGI read?
A: The TGI was > 100 µM.

Q: With C#CCn1c(=O)ccn(/C(=C\C(=O)OCC)C(=O)OCC)c1=O as the compound, how does the TGI read?
A: The TGI was 36 µM.

Q: With O=C(c1ccccc1)C(c1ccccc1)C1(O)C(=O)Nc2ccccc21 (configuration not stated) as the compound, how does the TGI read?
A: Its TGI is > 100 µM.

Q: Which TGI does the source give for Cc1nc2ccccc2c(=O)n1-c1n[nH]c2ccccc12 here?
A: The TGI was > 100 µM.

Q: With OC(CC(CC(O)(C(F)(F)Cl)C(F)(F)Cl)=NNc1ccccc1)(C(F)(F)Cl)C(F)(F)Cl as the compound, how does the TGI read?
A: The TGI was > 10 µM.

Q: With O=c1[nH]c(=O)n(C2CC(O)C(CO)O2)cc1NN=NCCc1ccccc1 (configuration not stated) as the compound, how does the TGI read?
A: The TGI was > 100 µM.

Q: COc1cc(N2CCN(C(C)C)CC2)ccc1Nc1nc(Nc2cccc3ncccc23)c2cc[nH]c2n1 was tested. Which GI50 did it give?
A: The GI50 was 7.33 µM.

Q: What about the TGI of the same compound?
A: The TGI was > 25 µM.

Q: Which GI50 does the source give for CCN(CC)C(=O)CC1=C(C)/C(=C/c2[nH]c(-c3ccc[nH]3)cc2OC)N=C1C here?
A: The GI50 was 0.929 µM.

Q: What about the TGI of the same compound?
A: The TGI was > 100 µM.

Q: With CCCCN(CCCC)c1ccc(C(=N)c2ccc(N(C)C)cc2)cc1 as the compound, how does the GI50 read?
A: The GI50 was 1.05 µM.

Q: And the TGI?
A: The TGI was 2.48 µM.

Q: How did the GI50 turn out when CN(C)c1ccc(-c2ccc(-c3ccc(C(=N)N)c(F)c3)s2)cc1 was run?
A: The GI50 was 1.37 µM.

Q: And the TGI?
A: Its TGI is 2.73 µM.

Q: For CCCCSN1C(=O)c2ccccc2C1=S, which TGI is on record?
A: The TGI was > 100 µM.

Q: Clc1cc(OCc2nn3c(Cc4ccccc4)nnc3s2)ccc1OCc1nn2c(Cc3ccccc3)nnc2s1 was tested. Which TGI did it give?
A: Its TGI is > 100 µM.

Q: With Cc1oc2nc[nH]c(=O)c2c1C(=O)/C=C/c1ccc(Cl)cc1 as the compound, how does the GI50 read?
A: Its GI50 is 2.32 µM.

Q: What about the TGI of the same compound?
A: The TGI was 10.9 µM.

Q: Which TGI does the source give for C[C@]12CCC3c4ccc(O)cc4CC[C@H]3C1CC(=O)N(N)C2=O (some centres not stated) here?
A: Its TGI is > 100 µM.

Q: How did the TGI turn out when COc1cc(C2S/C(=C/c3ccccc3)C(=O)N2c2cc(Cl)ccc2Cl)cc(OC)c1OC (configuration not stated) was run?
A: The TGI was > 100 µM.

Q: With CC(NC(=O)C(OC(=O)C(C)NC(=O)OC(C)(C)C)C(C)C)C(=O)OC(C(=O)O)C(C)C (configuration not stated) as the compound, how does the TGI read?
A: The TGI was > 100 µM.

Q: For C/C(=N/NC(=O)c1ccncc1)c1ccc(NC(=O)C(=O)Nn2c(=S)[nH]c3ccccc3c2=O)cc1, which TGI is on record?
A: The TGI was > 100 µM.

Q: Which TGI does the source give for N#CC(c1ccc(Cl)cc1)c1c(O)nc2ccc(=N)cc-2n1O (configuration not stated) here?
A: The TGI was > 100 µM.

Q: For CO[C@H]1[C@@H](O)[C@@H](C)O[C@@H](O[C@H]2CC[C@@]3(C)[C@H](CC[C@@H]4[C@@H]3CC[C@]3(C)[C@@H](C5=CC(=O)OC5)CC[C@]43O)C2)[C@@H]1O, which TGI is on record?
A: Its TGI is 0.0597 µM.

Q: For COc1ccc(NS(=O)c2ccc(-c3ccccc3)cc2)cc1 (configuration not stated), which TGI is on record?
A: The TGI was > 100 µM.

Q: With CNC(=S)N/N=C1\CC(c2ccccc2)Oc2ccccc21 (configuration not stated) as the compound, how does the TGI read?
A: Its TGI is > 100 µM.

Q: Which results are given for O=C(Cn1c(=O)c(-c2ccccc2)nc2ccccc21)c1ccc(Cl)cc1?
A: GI50: 53.2 µM; TGI: > 100 µM

Q: With Cc1c(C)c2c(c(C)c1NC(=O)/C=C\C(=O)O)CCC(C)(CCCC(C)CCCC(C)CCCC(C)C)O2 (configuration not stated) as the compound, how does the GI50 read?
A: Its GI50 is 1.96 µM.

Q: And the TGI?
A: The TGI was 4.41 µM.

Q: How did the TGI turn out when COc1ccc(-c2cc(-c3ccc(Cl)cc3)n(C3OC(CO)C(O)C(O)C3O)c(=S)c2C#N)cc1 (configuration not stated) was run?
A: Its TGI is > 100 µM.

Q: [N-]=[N+]=Nc1ccc(NCCCCCC(=O)ON2C(=O)CCC2=O)c([N+](=O)[O-])c1 was tested. Which TGI did it give?
A: The TGI was > 100 µM.

Q: With CC(C)(C)OC(=O)NC1CC=CCC1NC(=O)OC(C)(C)C (configuration not stated) as the compound, how does the TGI read?
A: The TGI was > 100 µM.

Q: Which TGI does the source give for C=C[C@@]1(C)CCC2(O)C(CCC3C2(C)CCC[C@@]3(C)COC(=O)CC(=O)OC)C1 (some centres not stated) here?
A: The TGI was > 100 µM.

Q: How did the GI50 turn out when CN1CCN(c2ccc(-c3ccc4ncc(C#N)c(Nc5ccc(F)c(Cl)c5)c4c3)cc2)CC1 was run?
A: The GI50 was 0.42 µM.

Q: And the TGI?
A: Its TGI is 13.1 µM.

Q: For Oc1[nH]c2ccccc2c1N=NC(=S)N1CCCCC1, which TGI is on record?
A: The TGI was 2.88 µM.

Q: What does the source list for C=C1C(=O)O[C@H]2[C@H]1CC/C(Cn1cc(CNCCc3c[nH]c4ccc(Cl)cc34)nn1)=C\CC[C@@]1(C)O[C@@H]21?
A: GI50: 23.6 µM; TGI: 98.5 µM

Q: Which TGI does the source give for COc1ccc(N)c(C(O)CCNC(C)=O)c1 (configuration not stated) here?
A: The TGI was > 100 µM.

Q: COC(=O)CCC1(C)C2CCC1(C)/C(=N/O)C2 (configuration not stated) was tested. Which TGI did it give?
A: Its TGI is > 100 µM.

Q: For N#CNC(N)=NCCO, which TGI is on record?
A: The TGI was > 100 µM.

Q: For NC(C/[N+]([O-])=N/O)C(=O)O (configuration not stated), which GI50 is on record?
A: The GI50 was 4.37 µM and 3.72 µM and 10.2 µM.

Q: What about the TGI of the same compound?
A: Its TGI is > 500 µM.

Q: Which TGI does the source give for C=C(C)[C@@H]1CC[C@]2(C)CC[C@]3(C)[C@H](CC[C@@H]4[C@@]5(C)CC[C@H](OC(=O)c6ccccc6)C(C)(C)[C@@H]5CC[C@]43C)[C@@H]12 here?
A: The TGI was > 100 µM.

Q: What does the source list for Cc1ccc(S(=O)(=O)OC[C@]23CCC(C)(C)C[C@H]2C2=CC[C@@H]4[C@@]5(C)CCCNC(C)(C)[C@@H]5CC[C@@]4(C)[C@]2(C)CC3)cc1?
A: GI50: 14.9 µM; TGI: 40.5 µM

Q: With Cc1cccc(-n2c(C)nc3ccc(NC4OC(CO)C(O)C(O)C4O)cc3c2=O)c1 (configuration not stated) as the compound, how does the TGI read?
A: The TGI was > 100 µM.

Q: For COc1ccc(N(C)CN(C)c2nc(N(C)C)nc(N(C)C)n2)cc1, which TGI is on record?
A: The TGI was > 100 µM.

Q: Which TGI does the source give for COc1cc(=O)oc(/C=C/C=O)c1C here?
A: Its TGI is > 100 µM.

Q: How did the GI50 turn out when C=CCn1c(=O)c2cnc(Nc3ccc(N4CCN(C)CC4)cc3)nc2n1-c1ccc2c(n1)[C@@](O)(CC)CC2 was run?
A: The GI50 was 0.298 µM.

Q: What about the TGI of the same compound?
A: The TGI was 15.8 µM.

Q: For CN1CCC(CNC(=O)CCCCCCCCC(=O)NCC2(c3ccccc3)CCN(C)CC2)(c2ccccc2)CC1, which TGI is on record?
A: Its TGI is > 100 µM.

Q: With NCCC(=O)N[C@H](Cc1cc(O)c(O)c(SCC(NC(=O)CC[C@H](N)C(=O)O)C(=O)NCC(=O)O)c1)C(=O)O (some centres not stated) as the compound, how does the TGI read?
A: Its TGI is > 50 µM.

Q: For CC1SC(c2ccccc2)N(Nc2c3ccccc3nc3ccccc23)C1=O (configuration not stated), which TGI is on record?
A: Its TGI is > 100 µM.

Q: Which TGI does the source give for CCNC(C)(C)C(SS)c1ccc(Br)cc1 (configuration not stated) here?
A: Its TGI is > 100 µM.

Q: With COc1ccc(-c2nn(-c3ccc(NC(=O)c4ccc(Cl)c(C(F)(F)F)c4)cc3)cc2-c2ccncc2)cc1Cl as the compound, how does the GI50 read?
A: The GI50 was 7.78 µM.

Q: And the TGI?
A: The TGI was > 100 µM.

Q: With CO[C@H]1O[C@@H]2CO[C@@H](c3ccccc3)O[C@H]2[C@@H]2CC=CCC[C@]12O as the compound, how does the TGI read?
A: The TGI was > 100 µM.

Q: With O=C(O)c1nc2cc(C(F)(F)F)ccc2nc1Nc1ccc(Cl)c(Cl)c1 as the compound, how does the TGI read?
A: The TGI was 63.8 µM.

Q: How did the TGI turn out when CCC(CS(=O)(=O)O)[N+](=O)[O-] (configuration not stated) was run?
A: The TGI was > 100 µM.

Q: Nc1nc(N)c(C2=CCN(Cc3ccccc3)CC2)c(=O)[nH]1 was tested. Which TGI did it give?
A: Its TGI is > 100 µM.

Q: CCOC(=O)[C@@H]1C[C@H]1c1ccc(O)c(O)c1 was tested. Which TGI did it give?
A: Its TGI is > 100 µM.

Q: For O=C(Cc1nc2ccccc2c(=O)n1-c1c(Cl)cccc1Cl)c1ccncc1, which TGI is on record?
A: The TGI was 81.4 µM.

Q: Which TGI does the source give for O=[N+]([O-])c1ccc(N=Nc2c(O)ccc3cc(S(=O)(=O)O)ccc23)cc1 here?
A: Its TGI is > 100 µM.

Q: For Oc1ccc(Cl)cc1-c1[nH]c(=S)nc(-c2ccccc2)c1Cl, which TGI is on record?
A: Its TGI is > 100 µM.

Q: For CN1C(OCc2ccccc2)c2c(ccc3c2OCO3)C2C=Cc3cc4c(cc3C21)OCO4 (configuration not stated), which TGI is on record?
A: The TGI was 2.48 µM.

Q: How did the GI50 turn out when CCOC(=O)C1=C(C)NC2SC(=O)/C(=C\c3ccccc3Cl)N2C1c1ccccc1 (configuration not stated) was run?
A: Its GI50 is > 100 µM.

Q: And the TGI?
A: The TGI was > 100 µM.

Q: Which GI50 does the source give for N#CC(C#N)=Cc1c(-c2ccccc2)[nH]c2ccccc12 here?
A: Its GI50 is 11.3 µM.

Q: And the TGI?
A: The TGI was > 93.8 µM.

Q: For CCSc1c(C)c2c(n(Cc3ccc(OC)cc3)c1=O)Cc1ccccc1C2, which TGI is on record?
A: The TGI was 85.7 µM.

Q: Which TGI does the source give for C#CCSc1nc(N)c2ncn(C3OC(CO)C(O)C3O)c2n1 (configuration not stated) here?
A: Its TGI is > 100 µM.

Q: Which TGI does the source give for O=C(CC(=O)C(=O)Nc1ccccc1)CC(c1ccccc1)c1c(O)c2ccccc2oc1=O (configuration not stated) here?
A: The TGI was > 100 µM.

Q: With Cc1nc(Cl)c2sc(=S)n(-c3ccc(F)cc3)c2n1 as the compound, how does the TGI read?
A: Its TGI is 24 µM.

Q: Which TGI does the source give for CCN(CC)c1ccc2c(c1)OC(=O)C(c1nnc(-c3ccc([N+](=O)[O-])cc3)o1)C2 (configuration not stated) here?
A: The TGI was > 100 µM.

Q: For O=S1CSCS1 (configuration not stated), which TGI is on record?
A: Its TGI is > 100 µM.

Q: Cc1cc(=O)n(-c2ccccc2)c(=O)o1 was tested. Which TGI did it give?
A: Its TGI is > 100 µM.

Q: Which TGI does the source give for O=C1CSC(/C(=C/c2ccccc2)c2nc3ccccc3[nH]2)=N1 here?
A: The TGI was > 100 µM.

Q: Which GI50 does the source give for CN(C)c1ccc2c(c1)CN1C(=O)c3ccccc3C1=N2 here?
A: Its GI50 is > 100 µM.

Q: And the TGI?
A: The TGI was > 100 µM.

Q: Which TGI does the source give for NCC[Se][Se]CCN here?
A: The TGI was 13.7 µM.
